# From PubChem BioAssay (Tox21)
# “And” between values parts separate entries of the source, which are not always exact repeats. Equal entries are not always repeated. The inconclusive results got no clear call from the source; some entries with a clear call stand among them for comparison. For some of these results: Potencies beside an inconclusive call are fits to weak or partial responses and may not hold up. Some structures have more than one record in an assay (separate samples or runs), and their calls can disagree. The source made the active and inactive calls. Unless noted, calls come from the whole dose curve; as a rule, active = well fitted curve in the direction sought with a large enough effect in the repeat runs; inconclusive = weak or mixed curves; inactive = no such curve, though single readings can be large; an effect the other way counts as inactive or inconclusive.
# Experiments:
# [1] = A CellTox Green Cytotoxicity Assay to monitor cytotoxicity in HEK293 cells - 32 hour (AID 1224881); note: nearly all actives have a fitted effect of over 40% in size; note: potency is the fitted concentration of half-maximal effect
# In short: (§1)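 Seeding of HEK293 cells together with cytotoxicity dye preceded a 5 h incubation at 37 C/5% CO2. Test compounds in DMSO were then added and fluorescence monitored across 40 h.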
# [2] = A CellTox Green Cytotoxicity Assay to monitor cytotoxicity in HepG2 cells - 32 hour (AID 1224883); note: nearly all actives have a fitted effect of over 50% in size; note: potency is the fitted concentration of half-maximal effect
# In short: (§2)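 Nonlytic assay: viable cells exclude the dye, so fluorescence scales with cell death. HepG2 at 600 cells/well, compounds added after 5 h, signal read across 40 h.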
# [3] = A CellTox Green Cytotoxicity Assay to monitor cytotoxicity in HEK293 cells - 8 hour (AID 1224884); note: nearly all actives have a fitted effect of over 35% in size; note: potency is the fitted concentration of half-maximal effect
# In short: as §1
# [4] = qHTS RealTime-Glo MT Cell Viability Assay in HEK293 cells - 8 hour (AID 1224887); note: potency is the fitted concentration of half-maximal effect; nearly all actives have a fitted effect of over 50% in size
# In short: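 Tox21 screen in HEK293 using RealTime-Glo MT chemistry, with cells and reagent co-dispensed. Luminescence proportional to viable cell number was captured at intervals during 40 h compound exposure at 37 C.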
# [5] = A CellTox Green Cytotoxicity Assay to monitor cytotoxicity in HEK293 cells - 16 hour (AID 1224888); note: potency is the fitted concentration of half-maximal effect; nearly all actives have a fitted effect of over 35% in size
# In short: as §1
# [6] = A CellTox Green Cytotoxicity Assay to monitor cytotoxicity in HepG2 cells - 0 hour (AID 1224882); note: potency is the fitted concentration of half-maximal effect; nearly all actives have a fitted effect of over 35% in size
# In short: as §2
# [7] = A CellTox Green Cytotoxicity Assay to monitor cytotoxicity in HepG2 cells - 8 hour (AID 1224890); note: potency is the fitted concentration of half-maximal effect; nearly all actives have a fitted effect of over 45% in size
# In short: as §2
# [8] = qHTS RealTime-Glo MT Cell Viability Assay in HepG2 cells - 16 hour (AID 1224885); note: nearly all actives have a fitted effect of over 50% in size; note: potency is the fitted concentration of half-maximal effect
# In short: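 HepG2 cells (600/well) were dispensed with RealTime-Glo reagents, incubated 5 h at 37 °C, then treated with compounds in DMSO for up to 40 h. Nonlytic NanoLuc luminescence reflecting viable cells was read at each stated time point.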
# [9] = molecular target: Androgen receptor (Homo sapiens) (UniProt P10275); experiment: qHTS assay to identify small molecule antagonists of the androgen receptor (AR) signaling pathway using the MDA cell line in the presence of 0.5 nM R1881 (AID 1259243); note: potency is the fitted concentration of half-maximal effect; nearly all actives have a fitted effect of over 50% in size
# In short: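 We exposed MDA-kb2 cells to compounds under 0.5 nM R1881 stimulation for 16 hr at 37C and quantified MMTV-driven luciferase by luminescence.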
# [10] = qHTS assay to identify small molecule HDAC inhibitors (AID 1259364);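 note: wild-type HCT-116 cells with endogenous class I/II HDAC activity; top concentration of the series differs between compounds; nearly all actives have a fitted effect of over 45% in size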
# In short: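 Relative class I and II HDAC activity is taken from the luminogenic signal in HCT-116 cells, with compound exposure 2 hr and reagent development 30 min at room temperature.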
# [11] = qHTS assay to identify small molecule antagonists of the sonic hedgehog signaling (Shh) pathway - cell viability counter screen (AID 1259367); note: nearly all actives have a fitted effect of over 55% in size; note: potency is the fitted concentration of half-maximal effect
# In short: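 Using CellTiter-Fluor, viability of Gli1-Luc reporter 3T3 cells is read by fluorescence in the wells used for the Shh luciferase assay. Treatment lasts 23 hr with conditioned medium, then reagent 1 hr at 37C.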
# [12] = qHTS assay to identify small molecule antagonists of the androgen receptor (AR) signaling pathway using the MDA cell line in the presence of 0.5 nM R1881 - cell viability counter screen (AID 1259242); note: nearly all actives have a fitted effect of over 45% in size; note: potency is the fitted concentration of half-maximal effect
# In short: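 R1881 at 0.5 nM final stimulated MDA-kb2 cells during 16 hr compound treatment at 37C. Cytotoxicity read: CellTiter-Fluor fluorescence after 30 min.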
# [13] = qHTS assay to identify small molecule antagonists of the estrogen receptor alpha (ER-alpha) signaling pathway using the BG1 cell line in the presence of 0.1 nM 17-beta-estradiol - cell viability counter screen (AID 1259241); note: nearly all actives have a fitted effect of over 40% in size
# In short: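 Cells were plated and left 24 hr, compounds in DMSO were pinned in, 17beta-estradiol was added to 0.1 nM final, and after 22 hr CellTiter-Fluor reagent was added for 30 min before fluorescence was read.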
# [14] = molecular target: Estrogen receptor (Homo sapiens) (UniProt P03372); experiment: qHTS assay to identify small molecule antagonists of the estrogen receptor alpha (ER-alpha) signaling pathway using the BG1 cell line in the presence of 0.1 nM 17-beta-estradiol (AID 1259244)
# In short: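 VM7Luc4E2; 4xERE-luciferase; 0.1 nM E2 final; 22 h co-incubation, 37C; ONE-Glo luminescence after 30 min at room temperature.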
# [15] = qHTS assay to identify small molecule phospholipidosis (PLD) inducers (AID 1259344; active = well fitted curve in the direction sought with a large enough effect; inconclusive = small, poorly fitted or top-dose-only effect, or another doubt; inactive = no such curve, though single readings can be large; an effect the other way counts as inactive or inconclusive; note: potency is the fitted concentration of half-maximal effect); conditions: HepG2 phospholipidosis, LipidTOX Red imaging, 24 h; series mostly up to 38.3 µM
# In short: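 Fluorescent phospholipid staining (LipidTOX Red) measured by automated microscopy in fixed HepG2 cells after 24 h treatment; nuclei counterstained with Hoechst 33342; amiodarone as reference inducer.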
# Tags give direction and shape of the fitted curve.
# UniProt P10275, sequence (P10275 whole entry, looked up): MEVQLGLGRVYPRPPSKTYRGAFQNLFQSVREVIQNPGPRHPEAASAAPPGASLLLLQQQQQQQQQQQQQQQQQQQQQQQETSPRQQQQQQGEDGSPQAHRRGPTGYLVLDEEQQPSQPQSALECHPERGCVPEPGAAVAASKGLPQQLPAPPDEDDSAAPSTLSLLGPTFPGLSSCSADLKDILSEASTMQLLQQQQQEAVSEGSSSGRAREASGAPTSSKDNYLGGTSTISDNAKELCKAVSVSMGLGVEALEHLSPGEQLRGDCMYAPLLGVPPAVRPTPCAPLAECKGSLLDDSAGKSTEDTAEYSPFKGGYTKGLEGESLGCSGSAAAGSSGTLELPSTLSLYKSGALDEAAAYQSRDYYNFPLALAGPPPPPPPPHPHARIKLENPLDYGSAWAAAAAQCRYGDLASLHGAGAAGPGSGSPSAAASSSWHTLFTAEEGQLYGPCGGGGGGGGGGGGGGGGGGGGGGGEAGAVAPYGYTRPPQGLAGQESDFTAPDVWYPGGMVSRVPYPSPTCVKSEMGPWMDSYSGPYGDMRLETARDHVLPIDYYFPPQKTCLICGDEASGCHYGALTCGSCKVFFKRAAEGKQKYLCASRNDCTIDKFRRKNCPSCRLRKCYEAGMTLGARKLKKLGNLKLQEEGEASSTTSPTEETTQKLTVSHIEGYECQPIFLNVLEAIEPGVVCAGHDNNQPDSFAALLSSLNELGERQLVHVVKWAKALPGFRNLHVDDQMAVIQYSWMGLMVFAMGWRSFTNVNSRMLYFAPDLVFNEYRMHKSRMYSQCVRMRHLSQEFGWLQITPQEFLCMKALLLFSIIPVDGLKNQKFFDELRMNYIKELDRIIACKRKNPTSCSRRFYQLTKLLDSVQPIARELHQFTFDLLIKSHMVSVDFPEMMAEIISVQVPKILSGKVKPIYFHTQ
# UniProt P03372, sequence (P03372 whole entry, looked up): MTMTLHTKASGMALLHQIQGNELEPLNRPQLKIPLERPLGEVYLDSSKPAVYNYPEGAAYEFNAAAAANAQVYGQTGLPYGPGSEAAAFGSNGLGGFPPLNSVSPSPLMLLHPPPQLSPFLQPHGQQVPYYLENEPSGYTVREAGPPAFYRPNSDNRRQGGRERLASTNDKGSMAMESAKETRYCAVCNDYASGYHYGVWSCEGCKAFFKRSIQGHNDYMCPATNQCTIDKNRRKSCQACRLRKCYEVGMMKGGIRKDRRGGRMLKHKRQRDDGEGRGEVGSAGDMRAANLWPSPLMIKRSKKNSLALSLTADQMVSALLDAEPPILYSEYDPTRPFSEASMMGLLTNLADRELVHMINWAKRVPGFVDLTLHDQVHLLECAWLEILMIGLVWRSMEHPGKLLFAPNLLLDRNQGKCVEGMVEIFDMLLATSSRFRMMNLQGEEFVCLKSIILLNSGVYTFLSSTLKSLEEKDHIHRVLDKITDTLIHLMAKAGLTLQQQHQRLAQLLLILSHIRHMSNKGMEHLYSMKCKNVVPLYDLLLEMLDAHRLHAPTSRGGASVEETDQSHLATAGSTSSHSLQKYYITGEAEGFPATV
smiles,measurement,setting,value
CCCC(=O)Nc1ccc(O)c(C(C)=O)c1,Potency,[1],inactive
CC(C)=CCC/C(C)=C/CC/C(C)=C/CO,Potency,[1],"inconclusive: 54.9 µM [activator, single point]"
same,Potency,[2],"inconclusive: 54.9 µM [activator, single point]"
same,Potency,[3],inactive
same,Potency,[4],"inconclusive: 38.9 µM [cytotoxic, partial curve, poor fit]"
same,Potency,[5],"inconclusive: 61.6 µM [activator, partial curve, poor fit]"
CN(C)CCOCCN(C)C,Potency,[1],active: 49 µM
same,Potency,[6],"inconclusive: 49 µM [activator, partial curve]"
same,Potency,[3],"inconclusive: 34.7 µM [activator, partial curve]"
same,Potency,[5],"inconclusive: 38.9 µM [activator, partial curve]"
CCCCCCCCCCCC[N+](C)(C)CC(=O)[O-],Potency,[1],"inconclusive: 49 µM [activator, partial curve, poor fit]"
same,Potency,[2],"inconclusive: 49 µM [activator, single point]"
same,Potency,[3],"inconclusive: 49 µM [activator, partial curve, poor fit]"
same,Potency,[5],"inconclusive: 49 µM [activator, partial curve, poor fit]"
CC(C)(O)CCCC1=CCC(C=O)CC1 (stereo unspecified),Potency,[1],inactive
CCCCCOc1ccc(C2SC(=O)NC2=O)cc1OCC (stereo unspecified),Potency,[1],inactive
same,Potency,[6],"inconclusive: 10.7 µM [activator, single point]"
same,Potency,[2],"inconclusive: 10.7 µM [activator, single point]"
same,Potency,[7],"inconclusive: 10.7 µM [activator, single point]"
CC1=C(C)S(=O)(=O)CCS1(=O)=O,Potency,[1],"inconclusive: 24.5 µM [activator, single point]"
same,Potency,[2],inactive
same,Potency,[3],"inconclusive: 21.9 µM [activator, single point]"
same,Potency,[8],inactive
same,Potency,[4],"inconclusive: 21.9 µM [rising, single point]"
same,Potency,[9],"inconclusive: 67.3 µM [inhibitor, single point] and inconclusive: 68.6 µM [inhibitor, single point]"
same,Potency,[10],inactive
same,Potency,[11],inactive
CC1=CC(C)C(C=O)CC1 (stereo unspecified),Potency,[1],inactive
same,Potency,[2],inactive
C=CC(C)(O)CC/C=C(\C)CCC=C(C)C (stereo unspecified),Potency,[1],active: 49 µM
same,Potency,[2],active: 21.9 µM
same,Potency,[3],"inconclusive: 54.9 µM [activator, single point]"
same,Potency,[5],"inconclusive: 61.6 µM [activator, single point]"
same,Potency,[12],inactive
same,Potency,[11],inactive
CC(C)C(=O)OCCc1ccccc1,Potency,[1],"inconclusive: 5.49 µM [activator, single point]"
Cc1ccc(C(C)C)cc1O,Potency,[1],"inconclusive: 54.9 µM [activator, single point]"
CCCCCC/C=C/C(=O)OC,Potency,[1],"inconclusive: 38.9 µM [activator, partial curve]"
same,Potency,[6],"inconclusive: 43.6 µM [activator, partial curve]"
same,Potency,[2],"inconclusive: 54.9 µM [activator, single point]"
same,Potency,[5],"inconclusive: 34.7 µM [activator, partial curve, poor fit]"
Fc1ccccc1-c1ccccc1,Potency,[1],"inconclusive: 39.7 µM [activator, partial curve, poor fit]"
same,Potency,[2],"inconclusive: 56.1 µM [activator, single point]"
O=C(CCCl)NCc1ccccc1,Potency,[1],inactive
NC(Cc1c[nH]c2ccccc12)C(=O)O (stereo unspecified),Potency,[1],inactive
C=CCOCC(O)CO (stereo unspecified),Potency,[1],"inconclusive: 61.6 µM [activator, single point]"
same,Potency,[6],"inconclusive: 21.9 µM [activator, single point]"
same,Potency,[2],"inconclusive: 21.9 µM [activator, single point]"
same,Potency,[5],"inconclusive: 61.6 µM [activator, single point]"
same,Potency,[7],"inconclusive: 21.9 µM [activator, single point]"
same,Potency,[13],inactive
CN(C)C(=O)C(CCN1CCC(O)(c2ccc(Cl)cc2)CC1)(c1ccccc1)c1ccccc1,Potency,[1],"inconclusive: 26.8 µM [activator, single point]"
same,Potency,[6],"inconclusive: 10.7 µM [activator, single point]"
same,Potency,[2],active: 19 µM
same,Potency,[8],"inconclusive: 23.9 µM [cytotoxic, partial curve]"
same,Potency,[4],active: 12 µM
same,Potency,[7],"inconclusive: 13.4 µM [activator, single point]"
same,Potency,[12],"inconclusive: 29.8 µM [cytotoxic, single point]"
same,Potency,[14],"inconclusive: 29.8 µM [inhibitor, single point]"
same,Potency,[15],"inconclusive: 5.62 µM [activator, full curve, poor fit]"
same,Potency,[11],"inconclusive: 26.6 µM [cytotoxic, partial curve, poor fit]"
